Results as given in PubChem BioAssay AID624296 (National Center for Advancing Translational Sciences (NCATS), 2012).
“And” between values parts separate entries of the source, which are not always exact repeats. Equal entries are not always repeated. Hit rate of the full screen: of about 350,000 compounds, about 9,900 (2.8%) were called active. The inconclusive results got no clear call from the source; some entries with a clear call stand among them for comparison. The call rests on the fitted dose curve; in most records, active means well fitted activation curve with a large enough effect; inconclusive means small, poorly fitted or top-dose-only effect; inactive means no such curve, though single readings can be large or run the other way. A potency beside an inconclusive call is a rough fit, not a confirmed value.

assay: A quantitative high throughput screen for small molecules that induce DNA re-replication in MCF 10a normal breast cells.; further: nearly all actives have a fitted effect of over 50% in size; on activity, positive = re-replication: % of control where 0% means no effect; conditions: MCF 10A DNA re-replication, Hoechst nuclear intensity, 48 h; activity, positive = re-replication: at 46.1 µM (top of the series)
Potency means the concentration at half of the fitted maximal effect; tags describe the fitted curve by direction and shape.

Structure (SMILES) | Potency | activity, positive = re-replication
O=C(CN1CCN(S(=O)(=O)c2ccc(Br)cc2)CC1)Nc1ccccc1C(=O)c1ccccc1 | inconclusive: 8.2 µM [activator, partial curve, poor fit] | –
NC(=O)c1ccccc1NC(=O)c1ccc2ccccc2c1 | – | inactive: 11.4%
CCOC(=O)c1cnc(-c2ccccc2)nc1N1CCOCC1 | inconclusive: 29.1 µM [activator, single point] | –
COc1ccccc1-c1cc2nc(C)cc(C)n2n1 | inconclusive: 0.58 µM [activator, full curve, poor fit] | –
COc1ccccc1NC(=O)Cn1nc(-c2ccncc2)nc1SCC(=O)NC1CCCC1 | inconclusive: 23.1 µM [activator, single point] | –
COc1ccc(NS(=O)(=O)c2cccc(C(=O)NCC(c3ccc(OC)cc3)N3CCCC3)c2)cc1 (configuration not stated) | – | inactive: -1.87%
CC(C)CNc1nc2c(c(=O)n(C)c(=O)n2C)n1Cc1cccc(Br)c1 | – | inactive: -16.1%
C/C=C\C(=O)Nc1cccc(C2=NOC3(C2)C[C@@H](C(N)=O)N(C(=O)c2ccc(OC)cc2)C3)c1 (some centres not stated) | inconclusive: 6.51 µM [activator, full curve, poor fit] | –
CCc1cc2c(=O)c(-c3nc4ccccc4n3C)coc2c(CN2CCCC(C)C2)c1O (configuration not stated) | inconclusive: 6.51 µM [activator, partial curve, poor fit] | –
CCCCSC1=N/C(=C/c2ccsc2)C(=O)N1c1ccccc1 | inconclusive: 18.4 µM [activator, single point] | –
CN(C)CCCn1c(N)c(C#N)c2nc3ccccc3nc21 | active: 18.4 µM | –
COC(=O)CSc1nnc(CCc2ccccc2)n1C | – | inactive: -2.41%
COc1ccc(C2CC(=O)c3cnc(NC(=O)c4ccccc4OC)nc3C2)c(OC)c1 (configuration not stated) | inconclusive: 14.6 µM [activator, partial curve, poor fit] | –
Cc1ccc(NC(=O)NNC(=O)c2cc3ccccc3cc2O)c(C)c1 | – | inactive: -12%
COc1ccc(N/C=C/C(=O)c2ccc(Oc3ncccn3)cc2)cc1 | inconclusive: 32.6 µM [activator, partial curve, poor fit] | –
COc1ccc(-c2nnc(Nc3nc4c(OC)cccc4s3)o2)cc1 | inconclusive: 23.1 µM [activator, single point] | –
Cc1ccc2c(c1)[C@H]1[C@H](CO2)[C@H](c2ccccc2)[C@]2(C)C(=O)Nc3cc(F)c(F)cc3C(=O)N12 | active: 5.17 µM | –
COc1ccc(Cc2nnc(NC(=O)C3CC(=O)N(c4ccccc4)C3)s2)cc1OC (configuration not stated) | – | inactive: 6.31%
Cc1ccc(S(=O)(=O)NC(C)(C)CN2CCC(Cc3ccccc3)CC2)cc1 | inconclusive: 1.64 µM [activator, partial curve, poor fit] | –
CCC(=O)c1cc(-c2nc3ccccc3n2C)n(C)c1 | – | inactive: 10.7%
O=C(Nc1ccnc(-c2cccnc2)n1)c1cccs1 | inconclusive: 0.731 µM [activator, partial curve, poor fit] | –

Structure (SMILES) | Potency | activity, positive = re-replication
CCn1c(NCc2cc(OC)c(OC)c(OC)c2)nc2ccccc21 | inconclusive: 14.6 µM [activator, partial curve, poor fit] | –
CC(/C=N/NC(=O)CN1CCN(Cc2ccc(Cl)cc2)CC1)=C\c1ccco1 | inconclusive: 10.3 µM [activator, partial curve, poor fit] | –
CCc1ccc(Oc2cc(Cl)nc(N)n2)cc1 | inconclusive: 6.51 µM [activator, partial curve] | –
O=C(Nc1cc(Cl)ccc1Oc1ccccc1)c1ccc(F)cc1 | inconclusive: 29.1 µM [activator, single point] | –
COc1ccc(OC)c(S(=O)(=O)Nc2cccc(-c3ccc(N4CCCCCC4)nn3)c2)c1 | inconclusive: 29.1 µM [activator, single point] | –
NNC(=O)c1[nH]c2ccc(Cl)cc2c1-c1ccccc1 | active: 9.2 µM | –
CC(C)n1c(=O)[nH]c2cc(C(=O)Nc3ccccc3)ccc21 | – | inconclusive: -45.1% [activator]
COC(=O)c1cc2c([nH]c1=O)CCCC2=O | – | inactive: -16.4%
O=C(CCCN1C(=O)/C(=C\c2cccs2)SC1=S)Nc1ccc(O)cc1 | – | inactive: 1.75%
O=C1NN(c2cccc(Br)c2)C(=O)/C1=C\c1ccccc1 | inconclusive: 29.1 µM [activator, single point] | –
O=C1CCC(C(=O)N2CCN(c3ccccc3Cl)CC2)CN1CC1CCCCC1 (configuration not stated) | inconclusive: 5.8 µM [activator, partial curve, poor fit] | –
CCN1CCN(c2cc(C)c3cc(NC(=S)N4CCN(c5ccc(F)cc5)CC4)ccc3n2)CC1 | inconclusive: 6.51 µM [activator, single point] | –
CC(C)CN=c1cc(-c2ccccc2)oc2ccc(Cl)cc12 | inconclusive: 32.6 µM [activator, single point] | –
COc1ccccc1NC(=O)c1ccc(NC(=O)Cc2n[nH]c(=O)c3ccccc23)cc1 | – | inactive: 2.38%
CC(C(O)c1ccc(O)cc1)N1CCC(Cc2ccccc2)CC1 (configuration not stated) | inconclusive: 37.6 µM [activator, partial curve, poor fit] and inconclusive: 6.51 µM [activator, single point] and inconclusive: 25.9 µM [activator, single point] | –
COc1cc2c(cc1OC)/C(=C/C(=O)c1cccc([N+](=O)[O-])c1)NCC2 | inconclusive: 23.1 µM [activator, single point] | –
CCOC(=O)c1sc(-c2ccc(Br)cc2)cc1N | inconclusive: 23.1 µM [activator, single point] | –
COc1ccc(NC(=O)C2CCN(C(=O)c3cccs3)CC2)c(OC)c1 | inconclusive: 29.1 µM [activator, single point] | –
CCN(CC)CCN1C(=O)C(=O)/C(=C(/O)c2ccncc2)C1c1ccccc1F (configuration not stated) | – | inactive: -1.65%
Cc1cccn2c(/C=N/OCc3ccc(F)cc3)c(-c3ccc(Cl)cc3)nc12 | inconclusive: 14.6 µM [activator, partial curve] | –
COc1cc2c(cc1OC)CN(C(=O)CCCOc1ccc(Cl)cc1Cl)CC2 | inconclusive: 29.1 µM [activator, single point] | –
